{"source": "paper PMC12040169", "about": "(PLOS Biology, 2025)", "note": "The other results are listed elsewhere or left out."}
{"tested_on": "T1, C. trachomatis L2/434/Bu expressing GFP (CTL2-GFP)", "T1 construct": "L2/434/Bu GFP intracellular growth in HeLa cells", "parameters": "species or system HeLa; C. trachomatis total inclusion area by high-content imaging, normalised to DMSO", "details": "total inclusion area; 28.5 h, 10 µM; inhibitor", "how_it_was_run": "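Imaging read-out: GFP inclusions and Hoechst nuclei captured by high-content imaging after fixation. Inclusion area/number = chlamydial growth; nuclei count = host cell viability. MIC calculated per earlier method.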"}
{"smiles": "C=C(C)Cn1c(SCC(=O)O)nnc1-c1ccccc1", "note": "[CBK262737]", "% of control remaining": 117.157}
{"smiles": "O=C1CC(SCCc2nc3ccccc3[nH]2)C(=O)N1c1ccc(F)cc1", "note": "(stereo not shown) [CBK267500]", "% of control remaining": 108.77}
{"smiles": "COc1ccc(CSc2nnc(SCc3ccc(C(=O)O)cc3)s2)cc1", "note": "[CBK300477]", "% of control remaining": 107.332}
{"smiles": "CS(=O)(=O)Nc1nnc(C(F)(F)F)s1", "note": "[CBK038168]", "% of control remaining": 90.9333}
{"smiles": "CCOC(=O)C1CCN(C(=O)c2ccc(OC)cc2)CC1", "note": "[CBK074220]", "% of control remaining": 99.9955}
{"smiles": "CC1CCN(S(=O)(=O)c2ccc(C(=O)N3CCCCC3C(=O)O)cc2)CC1", "note": "(stereo not shown) [CBK297094]", "% of control remaining": 102.616}
{"smiles": "C#CCNC(=O)CC[C@H]1CNC(=O)[C@@H]2[C@@H](CCN2CC(C)(C)C)N1C", "note": "[CBK289035]", "% of control remaining": 95.9476}
{"smiles": "CN1CCN(c2ccc3ccn(S(=O)(=O)c4ccc([N+](=O)[O-])cc4)c3n2)CC1", "note": "[CBK070757C]", "% of control remaining": 24.311}
{"smiles": "CC(=O)N[C@H]1CC[C@]2(C)CCC([C@H](C)C(=O)N3CCCCC3)[C@H](O)[C@H]2[C@@H]1C", "note": "(stereo partly shown) [CBK289439]", "% of control remaining": 135.982}
{"smiles": "Oc1cccc(/C=N/n2c(S)nnc2-c2ccncc2)c1", "note": "[CBK265300]", "% of control remaining": 92.1647}
{"smiles": "Cc1cc(NC(=O)Cc2ccsc2)c2ccccc2n1", "note": "[CBK116259]", "% of control remaining": 92.5474}
{"smiles": "Cc1csc2ncc(C(=O)Nc3cc(C(F)(F)F)ccc3Cl)c(=O)n12", "note": "[CBK287465]", "% of control remaining": 61.2923}
{"smiles": "CC(=O)NCCC1CCN(c2nc(C(C)(C)C)nc3c2cnn3C)CC1", "note": "[CBK307364]", "% of control remaining": 99.7305}
{"smiles": "OC(CN1CCC(Oc2ccccc2F)CC1)c1cccs1", "note": "(stereo not shown) [CBK281433]", "% of control remaining": 83.7758}
{"smiles": "COCCN1CC[C@@H]2[C@@H](C/C=C/Cc3ccccc3OCC(=O)N2C)C1", "note": "[CBK292134]", "% of control remaining": 69.9085}
{"smiles": "COc1ccccc1CNCC1CCN(C(=O)OC(C)(C)C)CC1", "note": "[CBK056710]", "% of control remaining": 99.7611}
{"smiles": "Cc1noc(C)c1CN1CCN(CC(CC(=O)Nc2ccc(F)cc2)C(=O)O)CC1", "note": "(stereo not shown) [CBK286821]", "% of control remaining": 100.103}
{"smiles": "CS(=O)(=O)NC1CCCN(Cc2nc(N)c3ccccc3n2)C1", "note": "(stereo not shown) [CBK304889]", "% of control remaining": 104.977}
{"smiles": "O=C(NC(=O)N1CCOCC1)c1csnn1", "note": "[CBK005561]", "% of control remaining": 101.034}
{"smiles": "Cc1ccc(/C=C/C(=O)O)cc1S(=O)(=O)NC1CCS(=O)(=O)C1", "note": "(stereo not shown) [CBK264409]", "% of control remaining": 109.791}
{"smiles": "Cc1ccncc1C(=O)N1CCc2ccccc21", "note": "[CBK200400]", "% of control remaining": 88.2609}
{"smiles": "COc1ccc(C2NC(C(=O)O)CS2)c(OC)c1", "note": "(stereo not shown) [CBK260908]", "% of control remaining": 83.0392}
{"smiles": "CS(=O)(=O)N/N=C/c1cccc(Br)c1", "note": "[CBK026427]", "% of control remaining": 56.9396}
{"smiles": "Cc1nc(C(=O)N(CCO)Cc2ccccc2)cs1", "note": "[CBK304810]", "% of control remaining": 28.1939}
{"smiles": "Cc1nc2c(C(=O)N3CCNC(=O)C3)cnn2c(C)c1Cc1ccccc1", "note": "[CBK162197]", "% of control remaining": 102.579}
{"smiles": "COc1ccc(C(C)C)cc1-c1cn2ccnc2c(N2CCN(c3ccncc3)CC2)n1", "note": "[CBK066217]", "% of control remaining": 41.6867}
{"smiles": "NC1=NC(=O)C(CC(=O)Nc2ccccc2Cl)S1", "note": "(stereo not shown) [CBK039145]", "% of control remaining": 90.3371}
{"smiles": "COc1ccc2c(c1)cc(C(=O)NCc1cncn1CC(C)C)n2C", "note": "[CBK307193]", "% of control remaining": 111.214}
{"smiles": "COc1ccccc1-c1nccnc1OCCn1cnc2c1c(=O)n(C)c(=O)n2C", "note": "[CBK106816]", "% of control remaining": 79.4088}
{"smiles": "Cc1c(C(C)NCC(O)COc2ccc(C#N)cc2)cnn1C", "note": "(stereo not shown) [CBK304881]", "% of control remaining": 67.7214}
{"smiles": "O=C(NCCSCc1ccc(Cl)cc1Cl)c1ccc(Br)cc1", "note": "[CBK264733]", "% of control remaining": 88.7557}
{"smiles": "O=C(Nc1ccccc1[N+](=O)[O-])c1cc(S(=O)(=O)Nc2ccccn2)ccc1Cl", "note": "[CBK263229]", "% of control remaining": 79.4679}
{"smiles": "CCC1(CC)OC(NC23CC4CC(CC(O)(C4)C2)C3)=NC1=O", "note": "[CBK107938]", "% of control remaining": 94.9866}
{"smiles": "O=C(Cc1c[nH]cn1)Nc1cccc2cc[nH]c12", "note": "[CBK160097]", "% of control remaining": 90.9471}
{"smiles": "COc1ccc(-n2cnnn2)cc1", "note": "[CBK001946]", "% of control remaining": 28.6575}
{"smiles": "O=C(OCCC1SC(NC2CC3C=CC2C3)=NC1=O)c1cc(C(F)(F)F)cc(C(F)(F)F)c1", "note": "(stereo not shown) [CBK056857T]", "% of control remaining": 86.7138}
{"smiles": "NC(=O)NS(=O)(=O)c1ccc(NC(=S)NC(=O)c2ccco2)cc1", "note": "[CBK261068]", "% of control remaining": 98.7831}
{"smiles": "CC(C)c1ccc(/C=C/C(=O)NC2CC2)cc1", "note": "[CBK149640]", "% of control remaining": 49.7303}
{"smiles": "O=C(O)c1ccc(NS(=O)(=O)c2ccc(NC(=O)c3ccccc3Cl)cc2)cc1", "note": "[CBK265184]", "% of control remaining": 87.7644}
{"smiles": "C=CCSC1=N/C(=C\\c2ccc(C(=O)O)cc2)C(=O)S1", "note": "[CBK265057]", "% of control remaining": 107.736}
{"smiles": "Cc1ccc(S(=O)(=O)c2cc3c(=O)n4ccccc4nc3n(CCN3CCOCC3)c2=N)cc1", "note": "[CBK265637]", "% of control remaining": 70.6785}
{"smiles": "CN(Cc1nc(-c2ccccc2)no1)C(=O)C1CCOC1", "note": "(stereo not shown) [CBK306755]", "% of control remaining": 60.215}
{"smiles": "Cn1cc(-c2nc(C3COCCN3C(=O)c3cccc(Cl)c3)no2)cn1", "note": "(stereo not shown) [CBK305443]", "% of control remaining": 65.0691}
{"smiles": "C=CCNc1nccnc1-c1ccncc1", "note": "[CBK036845]", "% of control remaining": 99.3238}
{"smiles": "Cn1c(=O)c2c(ncn2CCOc2cnc(-c3cnn(Cc4ccccc4)c3)c(N)n2)n(C)c1=O", "note": "[CBK145193]", "% of control remaining": 85.5598}
{"smiles": "CCCNc1nccnc1-c1cc(C)c(O)c(C)c1", "note": "[CBK037210]", "% of control remaining": 104.042}
{"smiles": "O=C(OCCC1SC(NC2CC3C=CC2C3)=NC1=O)c1c(F)cccc1F", "note": "(stereo not shown) [CBK200057T]", "% of control remaining": 90.8518}
{"smiles": "CC(C)Nc1nc2ccccc2nc1Sc1ccncc1", "note": "[CBK115250]", "% of control remaining": 110.273}
{"smiles": "CCOC(=O)/C(C(=O)c1ccccc1)=C(/N)NCCO", "note": "[CBK265621]", "% of control remaining": 100.982}
{"smiles": "Clc1ccccc1-c1nsc(Nc2ccccc2)n1", "note": "[CBK016152]", "% of control remaining": 74.7474}
{"smiles": "COCC(=O)N1CCc2sccc2C1c1ccc(NC(=O)c2ccco2)cc1", "note": "(stereo not shown) [CBK286200]", "% of control remaining": 106.714}
{"smiles": "CC1CC1C(=O)NCCN1CCC(O)(c2cccc(F)c2)CC1", "note": "(stereo not shown) [CBK283286]", "% of control remaining": 109.78}
